From the RNAGym collection of RNA variant scans (doi:10.7554/elife.90254) come the findings set out here.

To fix the notation:
B1: LINE1-mini (parent)
chain: GGCAGAGCUCAACACAGCGUGGCAAAGUGGCUGUGGCUAGACUGCC

The source gives no read counts; variants with many changes may rest on few reads.

The variants in this data set derive from B1. The data set can be described thus: self-cleavage, relative activity (ratio to wild type); higher = more cleavage; in vitro, sequencing; the parent is a self-cleaving ribozyme.
For GGCAGAGCUCAACACAGCGUGGCAAAGUGUCUGUGGCUAUACUAGC [G30U G40U G44A C45G], the self-cleavage was 0.05.
On to GGCAGAGCUCAACACAGCGUGGCAAAGUGGGUGUGACUAUACGGUC [C31G G36A G40U U43G C45U], for which the self-cleavage was 0.1.
As to GGCAGAGCUCAACACAGCGUGGCAAAGUGUCUGUGGCUAGACUCCA [G30U G44C C46A], the self-cleavage is 0.12.
For GGCAGAGCUCAACACAGCGUGGCAAAGUGUCGGGGGCUAAACGGAC [G30U U32G U34G G40A U43G C45A] the value was 0.02; for GGCAGAGCUCAACACAGCGUGGCAAAGUGUCUUUGGAUAGACUGCC [G30U G33U C37A], 0.06.
For GGCAGAGCUCAACACAGCGUGGCAAAGUGUUUAUGGCUAGACUGCC [G30U C31U G33A] the value was 0.05; for GGCAGAGCUCAACACAGCGUGGCAAAGUGGUUGUUGCUAGACUACC [C31U G35U G44A], 0.04.
For GGCAGAGCUCAACACAGCGUGGCAAAGUGCCUGUGGUCAGACUGCC [G30C C37U U38C] the value was 0.06; for GGCAGAGCUCAACACAGCGUGGCAAAGUGGGUGUGACUAGAGUGCC [C31G G36A C42G], 0.02.
Take GGCAGAGCUCAACACAGCGUGGCAAAGUGGGUGUGGCUUGACUCCC [C31G A39U G44C]: the self-cleavage amounted to 0.07.
For GGCAGAGCUCAACACAGCGUGGCAAAGUGCAACAGGCUCUACUGCC [G30C C31A U32A G33C U34A A39C G40U] the value was 0.06; for GGCAGAGCUCAACACAGCGUGGCAAAGUGGUUGAGGCUACACUGCC [C31U U34A G40C], 0.
As to GGCAGAGCUCAACACAGCGUGGCAAAGUGGAUGUGGCAAGACUGCG [C31A U38A C46G], the self-cleavage was determined as 0.12.
Under GGCAGAGCUCAACACAGCGUGGCAAAGUGCCUGUGGUUAGACUCCC [G30C C37U G44C] stands 0.06; under GGCAGAGCUCAACACAGCGUGGCAAAGUGCCUGUUGCAAGACUCCC [G30C G35U U38A G44C], 0.02.
For GGCAGAGCUCAACACAGCGUGGCAAAGUGGGGGUGGCUAGACUGCA [C31G U32G C46A] the value was 0; for GGCAGAGCUCAACACAGCGUGGCAAAGUGCUUUUGGCUAGACUGCG [G30C C31U G33U C46G], 0.03.
On to GGCAGAGCUCAACACAGCGUGGCAAAGUGGUUUUGGCUAGAAUGCC [C31U G33U C42A], for which the self-cleavage amounted to 0.
For GGCAGAGCUCAACACAGCGUGGCAAAGUGCCCGUGGAUAGACUGCC [G30C U32C C37A], the self-cleavage was 0.05.
Take GGCAGAGCUCAACACAGCGUGGCAAAGUGUCUGUGUGUAGACUGCC [G30U G36U C37G]: the self-cleavage was determined as 0.02.
Under GGCAGAGCUCAACACAGCGUGGCAAAGUGACUGAGGCUAGACUACC [G30A U34A G44A] stands 0.04.
On to GGCAGAGCUCAACACAGCGUGGCAAAGUGGUUGUGGCUAGUCUACC [C31U A41U G44A], for which the self-cleavage was 0.03.
Under GGCAGAGCUCAACACAGCGUGGCAAAGUGUAUGUGGCUAGACGGCG [G30U C31A U43G C46G] stands 0.28; under GGCAGAGCUCAACACAGCGUGGCAAAGUGGGUUUGGCUAGAUUGCC [C31G G33U C42U], 0.09.
For GGCAGAGCUCAACACAGCGUGGCAAAGUGCCGGUGGUCAGCCUGCC [G30C U32G C37U U38C A41C] the value was 0.06; for GGCAGAGCUCAACACAGCGUGGCAAAGUGGAUGUGGCUAAACUGCG [C31A G40A C46G], 0.04; for GGCAGAGCUCAACACAGCGUGGCAAAGUUGCUGUGGCGAGAGUGCC [G29U U38G C42G], 0.01.
For GGCAGAGCUCAACACAGCGUGGCAAAGUGACUGUGGAUAAACUGCC [G30A C37A G40A] the value was 0.28; for GGCAGAGCUCAACACAGCGUGGCAAAGUGGGUGUCGCUAGACUGUC [C31G G35C C45U], 0.03.
GGCAGAGCUCAACACAGCGUGGCAAAGUGUCUGUGGCGUACCUGCG [G30U U38G A39U G40A A41C C46G]: the self-cleavage is 0.03.
For GGCAGAGCUCAACACAGCGUGGCAAAGUGUCAAUGGCUAGAGUGCC [G30U U32A G33A C42G] the value was 0.12.
In the case of GGCAGAGCUCAACACAGCGUGGCAAAGUGGUUUUGGCUAGACUUUC [C31U G33U G44U C45U], the self-cleavage is 0.17.
Regarding GGCAGAGCUCAACACAGCGUGGCAAAGUGCUUGUGGGUAGACUGCC [G30C C31U C37G], the self-cleavage was found to be 0.07.
Under GGCAGAGCUCAACACAGCGUGGCAAAGUGACUGUGGCUACACUGGC [G30A G40C C45G] stands 0.07; under GGCAGAGCUCAACACAGCGUGGCAAAGUGGGUGUGGCUAGACAACC [C31G U43A G44A], 0.05.
Take GGCAGAGCUCAACACAGCGUGGCAAAGUGCCUGUGGUUAUACUGAC [G30C C37U G40U C45A]: the self-cleavage was determined as 0.
Consider GGCAGAGCUCAACACAGCGUGGCAAAGUUGCUGUGGCCAGACUGAU [G29U U38C C45A C46U], for which the self-cleavage was 0.06.
With GGCAGAGCUCAACACAGCGUGGCAAAGUGGUUGGGGUUAGACUGCC [C31U U34G C37U], the self-cleavage came to 0.02.
For GGCAGAGCUCAACACAGCGUGGCAAAGUGGUCGUGGCUAGACUGGC [C31U U32C C45G] the value was 0.1.
For GGCAGAGCUCAACACAGCGUGGCAAAGUGUCUAUGCCUAGACUGCC [G30U G33A G36C] the value was 0.2; for GGCAGAGCUCAACACAGCGUGGCAAAGUGUCUGUGGCUAGAAAGCC [G30U C42A U43A], 0.05.
Regarding GGCAGAGCUCAACACAGCGUGGCAAAGUGUCUGGGGCUAGACAGCC [G30U U34G U43A], the self-cleavage stood at 0.04.
Under GGCAGAGCUCAACACAGCGUGGCAAAGUGGUUGUGGUUAGACUGUA [C31U C37U C45U C46A] stands 0.09; under GGCAGAGCUCAACACAGCGUGGCAAAGUGGUUGCGACUAAAAUGCC [C31U U34C G36A G40A C42A], 0; under GGCAGAGCUCAACACAGCGUGGCAAAGUGCCUGUGGAUACACUGCC [G30C C37A G40C], 0.24.
With GGCAGAGCUCAACACAGCGUGGCAAAGUGGGUGAGGCCAGACUGCC [C31G U34A U38C], the self-cleavage is 0.05.
With GGCAGAGCUCAACACAGCGUGGCAAAGUGGGUAUGGCUAGAAUGCC [C31G G33A C42A], the self-cleavage came to 0.06.
For GGCAGAGCUCAACACAGCGUGGCAAAGUGACUUUGGCUAGGCUGCC [G30A G33U A41G] the value was 0.04; for GGCAGAGCUCAACACAGCGUGGCAAAGUGGAUGUGUCUAGAUUGCC [C31A G36U C42U], 0.03.
In the case of GGCAGAGCUCAACACAGCGUGGCAAAGUGGGUGUGGCUAGUCUUCG [C31G A41U G44U C46G], the self-cleavage is 0.01.
Regarding GGCAGAGCUCAACACAGCGUGGCAAAGUUGCUGUGGCAAGACUGUU [G29U U38A C45U C46U], the self-cleavage amounted to 0.86.
Under GGCAGAGCUCAACACAGCGUGGCAAAGUGAUUGUGGCUAUACUGCC [G30A C31U G40U] stands 0.03; under GGCAGAGCUCAACACAGCGUGGCAAAGUGACUCGGUCUAGCCGGCC [G30A G33C U34G G36U A41C U43G], 0.09; under GGCAGAGCUCAACACAGCGUGGCAAAGUGGAUGUGGCUAGACUUCA [C31A G44U C46A], 0.06.
Turning to GGCAGAGCUCAACACAGCGUGGCAAAGUGGGUGUGGCUAGACUGGG [C31G C45G C46G], the self-cleavage stood at 0.05.
As to GGCAGAGCUCAACACAGCGUGGCAAAGUGGGUAUGGCUAGACCCCC [C31G G33A U43C G44C], the self-cleavage was 0.05.
